The values below come from the antibiotic and cytotoxicity screens of Wong et al. (2023).

The structures appear in SMILES notation. Some of the results follow.

One assay deals with HSkMC. The assay can be described thus: cytotoxicity call (relative viability < 0.9). Particulars: 10 µM.
A further assay relates to HepG2. As to the kind of experiment: cytotoxicity call (relative viability < 0.9). Particulars: 10 µM.
A further assay concerns S. aureus RN4220. The assay can be described thus: growth inhibition call (relative growth <= 0.2). The following applies: 50 µM.

Consider `C[C@H](CO)N1C[C@H](C)[C@H](CN(C)C(=O)Nc2ccccc2)Oc2c(NS(C)(=O)=O)cccc2C1=O`, for which the cytotoxicity call with HSkMC and with HepG2 was “inactive” each time. The growth inhibition call in the assay on S. aureus RN4220 was “inactive”.
`C[C@@H]1CN([C@@H](C)CO)C(=O)c2cccc(NS(=O)(=O)c3cn(C)cn3)c2O[C@H]1CN(C)Cc1ccc(C(=O)Nc2ccccc2N)cc1`: the cytotoxicity call with HSkMC and with HepG2 was “inactive” in each case. In addition, in the assay on S. aureus RN4220, the growth inhibition call is “inactive”.
Regarding `C[C@H]1CN([C@@H](C)CO)C(=O)Cc2cc(NC(=O)Nc3ccc(F)cc3)ccc2O[C@@H]1CN(C)Cc1ccc(Oc2ccccc2)cc1`, in the assay on HSkMC, the cytotoxicity call was “inactive”. In addition, in the assay on HepG2, the cytotoxicity call was “active”. In the assay on S. aureus RN4220, the growth inhibition call is “inactive”.
With `C[C@@H]1CN([C@@H](C)CO)C(=O)CCCn2cc(nn2)CO[C@H]1CN(C)C(=O)Nc1ccc(N2CCN(C)CC2)cc1`, the cytotoxicity call in the assay on HSkMC and with HepG2 was “inactive” in each case. The growth inhibition call in the assay with S. aureus RN4220 is “inactive”.
In the case of `COc1ccc(NC(=O)Nc2ccc3c(c2)CC(=O)N([C@H](C)CO)C[C@@H](C)[C@H](CN(C)S(C)(=O)=O)O3)cc1`, the cytotoxicity call in the assay on HSkMC and in the assay on HepG2 was “inactive” each time. Besides, the growth inhibition call in the assay with S. aureus RN4220 was “inactive”.
Regarding `N[C@H](C(=O)O)c1ccc(C(=O)O)c(O)c1`, the cytotoxicity call with HSkMC and with HepG2 was “inactive” throughout. For the same compound, the growth inhibition call with S. aureus RN4220 is “inactive”.
Turning to `COc1ccc(NC(=O)N(C)C[C@H]2OCc3cnnn3CCCC(=O)N([C@H](C)CO)C[C@@H]2C)c(OC)c1`, the cytotoxicity call in the assay with HSkMC and with HepG2 was “inactive” each time. Further, the growth inhibition call in the assay with S. aureus RN4220 was “inactive”.
Take `COc1ccc(CNC(=O)C[C@@H]2CC[C@H]3[C@@H](COC[C@H](O)CN3S(=O)(=O)c3ccc(C)cc3)O2)cc1`: the cytotoxicity call in the assay on HSkMC and in the assay with HepG2 was “inactive” throughout. The growth inhibition call in the assay with S. aureus RN4220 was “inactive”.
As to `CO[C@H]1CN(C)C(=O)c2cc(NC(=O)Nc3cccc(F)c3)ccc2OC[C@H](C)N(C(=O)Nc2c(C)noc2C)C[C@@H]1C`, the cytotoxicity call in the assay with HSkMC and in the assay with HepG2 was “inactive” throughout. In addition, the growth inhibition call in the assay on S. aureus RN4220 was “inactive”.
As to `COc1ccc(S(=O)(=O)Nc2ccc3c(c2)C(=O)N([C@@H](C)CO)C[C@@H](C)[C@H](CN(C)CC2CCCCC2)OCCCC[C@@H](C)O3)cc1`, the cytotoxicity call in the assay with HSkMC and with HepG2 was “inactive” in each case. Moreover, the growth inhibition call in the assay on S. aureus RN4220 is “inactive”.
On to `COc1ccc(CN(C)C[C@H]2Oc3ccc(NS(C)(=O)=O)cc3C(=O)N([C@@H](C)CO)C[C@@H]2C)cc1`, for which the cytotoxicity call with HSkMC and in the assay with HepG2 was “inactive” throughout. For the same compound, the growth inhibition call with S. aureus RN4220 is “inactive”.
As to `COc1ccc(NC(=O)N(C)C[C@@H]2Oc3c(NS(=O)(=O)c4c(C)noc4C)cccc3C(=O)N([C@H](C)CO)C[C@@H]2C)cc1`, the cytotoxicity call in the assay on HSkMC and in the assay on HepG2 was “inactive” each time. The growth inhibition call with S. aureus RN4220 is “inactive”.
Consider `Cl.NC1C(O)OC(CO)C(O)C1O` (stereo not drawn), for which the cytotoxicity call with HSkMC and with HepG2 was “inactive” each time. In addition, the growth inhibition call in the assay with S. aureus RN4220 is “inactive”.
Consider `O=C1c2ccccc2C(=O)C1c1ccccc1`, for which the cytotoxicity call in the assay on HSkMC and in the assay on HepG2 was “inactive” throughout. The growth inhibition call in the assay with S. aureus RN4220 is “inactive”.
Regarding `C[C@@H]1CN([C@H](C)CO)C(=O)c2cc(NC(=O)NC3CCCCC3)ccc2O[C@@H](C)CCCCO[C@H]1CN(C)S(=O)(=O)c1ccccc1`, the cytotoxicity call with HSkMC and in the assay on HepG2 was “inactive” in each case. In addition, the growth inhibition call in the assay on S. aureus RN4220 is “inactive”.
Turning to `CCCCCCCCCCCCCCCc1cccc(OCC)c1C(=O)Nc1ccc(Cl)c(C(F)(F)F)c1`, the cytotoxicity call with HSkMC and in the assay on HepG2 was “inactive” each time. In the assay with S. aureus RN4220, the growth inhibition call was “inactive”.
Take `C[C@H](CO)N1C[C@H](C)[C@@H](CN(C)S(=O)(=O)c2cn(C)cn2)Oc2c(NS(=O)(=O)c3ccc(Cl)cc3)cccc2C1=O`: the cytotoxicity call in the assay on HSkMC and in the assay on HepG2 was “inactive” each time. Also, in the assay with S. aureus RN4220, the growth inhibition call is “inactive”.
As to `Cc1ccc(S(=O)(=O)Nc2ccc3c(c2)C(=O)N([C@H](C)CO)C[C@H](C)[C@@H](CN(C)C(=O)Cc2ccccc2)OCCCC[C@@H](C)O3)cc1`, the cytotoxicity call with HSkMC and in the assay with HepG2 was “inactive” each time. Also, the growth inhibition call with S. aureus RN4220 is “inactive”.
As for `C[C@H]1CCCCO[C@@H](CN(C)C(=O)NC2CCCCC2)[C@@H](C)CN([C@@H](C)CO)C(=O)c2cc(NC(=O)Nc3ccccc3)ccc2O1`, the cytotoxicity call with HSkMC and with HepG2 was “inactive” throughout. Besides, in the assay with S. aureus RN4220, the growth inhibition call is “inactive”.
As for `CCCCCCCCCCCCCCCC(=O)OC1C(SC)OC(C(NC(=O)C2CC(CCC)CN2C)C(C)Cl)C(O)C1O.Cl` (stereo not drawn), the cytotoxicity call in the assay on HSkMC (human skeletal muscle cells) and with HepG2 was “inactive” in each case. The growth inhibition call with S. aureus RN4220 was “inactive”.
`CO[C@H]1C[C@H](O[C@H]2[C@H](C)O[C@@H](O[C@@H]3/C(C)=C/C[C@@H]4C[C@@H](C[C@]5(C=C[C@H](C)[C@@H](C6CCCCC6)O5)O4)OC(=O)[C@@H]4C=C(C)[C@@H](O)[C@H]5OC/C(=C\C=C\[C@@H]3C)[C@]54O)C[C@@H]2OC)O[C@@H](C)[C@@H]1O`: the cytotoxicity call in the assay with HSkMC and with HepG2 was “inactive” throughout. Also, the growth inhibition call in the assay with S. aureus RN4220 was “inactive”.
As for `C[C@@H]1CCCCO[C@H](CN(C)S(=O)(=O)c2ccc(Cl)cc2)[C@@H](C)CN([C@H](C)CO)C(=O)c2cc(NC(=O)Nc3ccc4c(c3)OCO4)ccc2O1`, the cytotoxicity call in the assay with HSkMC and in the assay with HepG2 was “inactive” in each case. The growth inhibition call in the assay with S. aureus RN4220 was “inactive”.
As to `CC(C)NC(=O)N(C)C[C@@H]1Oc2ccc(NS(=O)(=O)c3ccc(Cl)cc3)cc2CC(=O)N([C@H](C)CO)C[C@@H]1C`, the cytotoxicity call with HSkMC and in the assay with HepG2 was “inactive” each time. Further, the growth inhibition call in the assay with S. aureus RN4220 is “inactive”.
With `CC(C)(O)c1cn(-c2nonc2N)nn1`, the cytotoxicity call with HSkMC and in the assay with HepG2 was “inactive” each time. Also, in the assay with S. aureus RN4220, the growth inhibition call is “inactive”.
`CN(C)[C@@H]1C(=O)[C@@H](C(N)=O)C(=O)[C@@]2(O)C(=O)[C@H]3C(=O)c4c(O)cccc4C[C@H]3C[C@@H]12`: the cytotoxicity call with HSkMC and in the assay with HepG2 was “inactive” in each case. Besides, the growth inhibition call with S. aureus RN4220 is “inactive”.
For `CC1(C)NCCNC1=O`, the cytotoxicity call in the assay with HSkMC and in the assay with HepG2 was “inactive” each time. Further, in the assay on S. aureus RN4220, the growth inhibition call was “inactive”.
